The whole screen tested about 410,000 compounds, of which about 6,400 (1.6%) were called active. Inconclusive means that the source gave no clear call. Such entries were picked first, then a sample of the others. The call rests on the fitted dose curve; in most records, active means well fitted inhibition curve with a large enough effect; inconclusive means small, poorly fitted or top-dose-only effect; inactive means no such curve, though single readings can be large or run the other way. No potency is given beside an inconclusive call; the fits are too rough.
Each compound was assayed against Glucagon-like peptide 1 receptor (Homo sapiens) (UniProt P43220) (assay: qHTS of GLP-1 Receptor Inverse Agonists (Inhibition Mode)). Details: HEK293 GLP-1R CRE-luciferase, luminescence, 24 h, GLP-1R form is constitutively active; activity change, negative = inhibition: at 38.3 µM (top of the series) unless noted.
In short: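 Readout was luciferase luminescence, measured 12 min after detection reagent at room temperature. Beforehand, GLP-1R reporter HEK293 cells had sat 12 h, then received compounds for 24 hr at 37 deg C.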
Further: nearly all actives have a fitted effect of over 55% in size.
On the % scale 0 is the no-effect control and ±100 the full control effect; potency means the concentration at half of the fitted maximal effect; tags describe the fitted curve by direction and shape.

UniProt P43220, sequence (P43220 whole entry, looked up): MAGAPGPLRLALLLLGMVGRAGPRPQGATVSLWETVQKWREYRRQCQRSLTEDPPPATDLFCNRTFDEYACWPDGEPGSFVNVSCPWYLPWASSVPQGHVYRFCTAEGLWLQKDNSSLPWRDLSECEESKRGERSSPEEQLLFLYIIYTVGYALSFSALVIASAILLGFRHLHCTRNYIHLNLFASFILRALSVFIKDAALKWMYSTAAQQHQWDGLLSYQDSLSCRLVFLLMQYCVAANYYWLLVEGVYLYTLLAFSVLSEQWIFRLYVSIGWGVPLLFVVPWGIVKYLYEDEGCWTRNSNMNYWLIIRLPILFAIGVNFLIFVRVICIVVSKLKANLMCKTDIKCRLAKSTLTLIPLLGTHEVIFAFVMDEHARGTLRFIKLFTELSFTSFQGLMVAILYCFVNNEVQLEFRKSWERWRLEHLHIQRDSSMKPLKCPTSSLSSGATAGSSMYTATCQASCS

Question: For `CCc1cccc(NC(=O)Cn2c(-c3ccc(F)cc3)cc(C(C)=O)c2C)c1`, which Potency is on record?
Answer: inconclusive [inhibitor, partial curve, poor fit]

Question: How did the Potency turn out when `N#CC(C(=O)NCc1ccco1)c1nc2ccccc2nc1N1CCOCC1` (configuration not stated) was run?
Answer: inconclusive [inhibitor, partial curve, poor fit]

Question: `Cc1ccc(NC(=S)N2CCCC(c3ccccc3)=N2)cc1` was tested. Which Potency did it give?
Answer: inconclusive [inhibitor, single point]

Question: Which Potency does the source give for `Cc1ccc(C(=O)Nc2ccc3nccnc3c2)cc1` here?
Answer: inconclusive [inhibitor, single point]

Question: Which “activity change, negative = inhibition” value does the source give for `CC1C(=O)N(Cc2cn(Cc3ccco3)nn2)CCS(=O)(=O)N1Cc1ccc(-c2ccccc2)cc1` (configuration not stated) here?
Answer: inactive: -14.8%

Question: For `CC1(C)CC2CC(C)(CN2c2ncnc3ccc(Br)cc23)C1` (configuration not stated), which Potency is on record?
Answer: inconclusive [inhibitor, partial curve]

Question: How did the “activity change, negative = inhibition” value turn out when `COc1ccccc1N1CCN(S(=O)(=O)c2ccc3c(c2)CCCN3C(C)=O)CC1` was run?
Answer: inactive: 9.15%

Question: `CC1CC(C)CN(Cc2nc(N)nc(Nc3ccc4ccccc4c3)n2)C1` (configuration not stated) was tested. Which Potency did it give?
Answer: inconclusive [inhibitor, partial curve, poor fit]

Question: How did the Potency turn out when `COc1ccc(C(OCC(O)CN2CCC(O)CC2)c2ccc(OC)cc2)cc1` (configuration not stated) was run?
Answer: inconclusive [inhibitor, partial curve, poor fit]

Question: `COc1ccc(NC(=O)CN(C)C(=O)c2ccc(N3CCCCC3)c([N+](=O)[O-])c2)cc1` was tested. Which Potency did it give?
Answer: inconclusive [inhibitor, full curve, poor fit]

Question: Which “activity change, negative = inhibition” value does the source give for `O=C(Nc1ccccc1)N(CCc1nc2ccccc2[nH]1)C1CCCC1` here?
Answer: inactive: -0.472%

Question: With `CC(C)c1ccc(-c2cc(C(=O)NN3CCN(C)CC3)c3ccccc3n2)cc1` as the compound, how does the Potency read?
Answer: inconclusive [inhibitor, single point]

Question: With `COc1ccc(Nc2ncc(C(=O)Nc3ccc(F)cc3F)c3ccccc23)cc1` as the compound, how does the Potency read?
Answer: inconclusive [inhibitor, single point]

Question: How did the Potency turn out when `COc1ccccc1C1c2[nH]c3ccccc3c2CCN1Cc1ccc(NC(C)=O)s1` (configuration not stated) was run?
Answer: inconclusive [inhibitor, partial curve, poor fit]

Question: `Cc1nc(C)n(CC(O)COc2ccc3cc(Br)ccc3c2)n1` (configuration not stated) was tested. Which “activity change, negative = inhibition” value did it give?
Answer: inactive: -4.53%

Question: How did the “activity change, negative = inhibition” value turn out when `NC(=O)C1CCN(C(=O)CSc2nc3ccccc3[nH]2)CC1` was run?
Answer: inactive: 9.77%

Question: With `O=C(C1=C(O)C(=O)N(c2ccccc2)C1c1ccc([N+](=O)[O-])cc1)c1cccs1` (configuration not stated) as the compound, how does the activity change, negative = inhibition read?
Answer: inactive: -12.7% [at 0.307 µM]

Question: With `O=C(NC12CC3CC(CC(C3)C1)C2)N1CCN(c2ccccc2)CC1` as the compound, how does the Potency read?
Answer: inconclusive [inhibitor, partial curve, poor fit]

Question: `NC(=O)CC(NC(=O)Cc1cccc2ccccc12)c1ccc(N2CCC(N3CCCCC3)CC2)c([N+](=O)[O-])c1` (configuration not stated) was tested. Which “activity change, negative = inhibition” value did it give?
Answer: inactive: 11.4%

Question: With `Oc1c(C(c2ccccc2)N2CCN(Cc3ccccc3)CC2)sc2ncnn12` (configuration not stated) as the compound, how does the “activity change, negative = inhibition” value read?
Answer: inactive: -0.283%

Question: How did the Potency turn out when `Cc1cc(NC(=O)c2oc3c(c2C)-c2[nH]ncc2CC3)ccc1Br` was run?
Answer: inconclusive [inhibitor, single point]

Question: For `Cn1c(Cc2ccccc2)nnc1SCC(=O)NC1CCCCC1`, which “activity change, negative = inhibition” value is on record?
Answer: inactive: 15.1%

Question: For `C/C=C(/C)C(=O)O[C@@H]1c2c(ccc3ccc(=O)oc23)O[C@@H]1C(C)(C)OC(=O)/C(C)=C\C`, which Potency is on record?
Answer: active: 12.6 µM

Question: For `COc1cccc(CN(C)C(=O)c2cccc(S(=O)(=O)Nc3cccc(C)c3)c2)c1OC`, which Potency is on record?
Answer: inconclusive [inhibitor, partial curve]

Question: How did the Potency turn out when `Cc1ccc(C)c(-c2cc(C(=O)Nc3nccs3)c3ccccc3n2)c1` was run?
Answer: inconclusive [inhibitor, partial curve, poor fit]

Question: With `COc1cccc(/C=N\NC(C)=O)c1OC/C=C/c1ccccc1` as the compound, how does the Potency read?
Answer: inconclusive [inhibitor, single point]

Question: With `COc1ccc(C2CC(O)(c3ccccc3)Oc3c(C)ccc(C)c32)cc1` (configuration not stated) as the compound, how does the “activity change, negative = inhibition” value read?
Answer: inactive: 7.08%

Question: Which Potency does the source give for `CC(NC(=O)NC12CC3CC(CC(C3)C1)C2)c1ccc2c(c1)OCO2` (configuration not stated) here?
Answer: active: 11.2 µM

Question: For `Cc1ccc(C(=O)N2CCC(C(=O)c3c(C)cc(C)cc3C)CC2)cc1`, which Potency is on record?
Answer: inconclusive [inhibitor, partial curve, poor fit]

Question: With `Cc1cc(=O)n2nc(N3CCC(C(=O)NCCCOC(C)C)CC3)sc2n1` as the compound, how does the “activity change, negative = inhibition” value read?
Answer: inactive: 0.604%

Question: Which Potency does the source give for `O=C(NCCCc1ccccc1)c1cccc(Br)c1` here?
Answer: inconclusive [inhibitor, single point]

Question: With `CNc1ccc(Br)cc(C(=O)/C=C/c2cccc(Cl)c2Cl)c1=O` as the compound, how does the Potency read?
Answer: inconclusive [inhibitor, partial curve, poor fit]

Question: `Cc1cccc(NC(=O)C2CC(=O)OC23CCCCC3)c1` (configuration not stated) was tested. Which Potency did it give?
Answer: inconclusive [inhibitor, partial curve, poor fit]

Question: `COc1cccc(CNC(=O)c2nn(C)c3c2CSc2ccccc2-3)c1` was tested. Which Potency did it give?
Answer: inconclusive [inhibitor, partial curve, poor fit]

Question: Which Potency does the source give for `Cc1ccc(S(=O)(=O)N2C(=O)CCC2C(=O)O/N=C(\N)c2ccccc2)cc1` (configuration not stated) here?
Answer: inconclusive [inhibitor, single point]

Question: For `O=C(NC(=S)N1CCN(c2ccc(Cl)cc2[N+](=O)[O-])CC1)c1ccco1`, which “activity change, negative = inhibition” value is on record?
Answer: inactive: -17.4%

Question: How did the Potency turn out when `CN(CC(=O)Nc1ccc(Cl)c(C(F)(F)F)c1)C(=O)c1ccc(N2CCOCC2)c([N+](=O)[O-])c1` was run?
Answer: inconclusive [inhibitor, partial curve, poor fit]

Question: With `O=C(CN1CCN(C2CCCCC2)CC1)c1c[nH]c2ccccc12` as the compound, how does the “activity change, negative = inhibition” value read?
Answer: inactive: -10.6%

Question: `CCOc1ccccc1NC(=O)C(OC(=O)c1ccc(NC(=O)CC#N)cc1)c1ccccc1` (configuration not stated) was tested. Which Potency did it give?
Answer: inconclusive [inhibitor, single point]

Question: For `OCCCNc1nccc(-c2cc(Nc3cccc(Cl)c3)ncn2)n1`, which Potency is on record?
Answer: inconclusive [inhibitor, full curve, poor fit]

Question: With `O=C(CN1C(=O)CCc2cc(Br)ccc21)Nc1ccc(OC(F)(F)F)cc1` as the compound, how does the Potency read?
Answer: inconclusive [inhibitor, single point]

Question: With `Cc1cccn2c(=O)c3cc(C(=O)NCc4ccco4)c(=N)n(C4CCCCC4)c3nc12` as the compound, how does the Potency read?
Answer: inconclusive [inhibitor, single point]

— PubChem BioAssay AID624417 (National Center for Advancing Translational Sciences (NCATS), 2012)
